Reference: the supplement of paper PMC6206098
± gives the uncertainty stated by the source. The sequences are guide strands of siRNAs; only the seed at positions 2 to 7 varies.

Tests used:
M565 = assay: cell viability relative to lipid-only control; higher = less toxic; conditions: concentration: 10 nM; 96 h; Mus musculus
H460 = assay: as above; conditions: concentration: 10 nM; 96 h; Homo sapiens
HeyA8 = assay: as above; conditions: concentration: 10 nM; 96 h; Homo sapiens
3LL = assay: cell viability relative to siNT1 control; HeyA8 human ovarian and H460 human lung cancer; M565 mouse liver and 3LL mouse lung cancer; siNT1 is a non-toxic control siRNA; higher = less toxic; conditions: concentration: 10 nM; 96 h; Mus musculus
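For cell viability relative to lipid-only control in this document: reverse lipid transfection in 384-well plates, in triplicate, of duplexes on a non-toxic 19mer backbone with passenger strand 2′-O-methylated at positions 1 and 2, luminescence viability read-out.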
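For cell viability relative to siNT1 control in this document: Luminescence-based viability of cells reverse transfected in 384-well plates with lipid-complexed siRNAs built on a non-toxic 19mer backbone whose passenger strand carries 2′-O-methyl groups at positions 1 and 2, triplicates.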

Sequence | cell viability (M565) [%] | cell viability (H460) [%] | cell viability (HeyA8) [%] | cell viability (3LL) [%]
UUACUAAACAUGUAAACCAAA | 73.8 ± 7 | 77 ± 6.1 | 95.6 ± 5.5 | 106 ± 7.6
UUAAUUCACAUGUAAACCAAA | 59.6 ± 12 | 69.3 ± 4 | 66.5 ± 5.8 | 57.6 ± 6.1
UGUAUAUACAUGUAAACCAAA | 62.9 ± 2.6 | 63.8 ± 8.1 | 71.3 ± 6.7 | 79.6 ± 8
UGUCAGAACAUGUAAACCAAA | 76.6 ± 5.5 | 49.6 ± 5.2 | 52.7 ± 4.8 | 72.4 ± 15
UUCUUCCACAUGUAAACCAAA | 103 ± 24 | 29.7 ± 3 | 26.6 ± 3.1 | 50.7 ± 3.9
UGUAACUACAUGUAAACCAAA | 23.3 ± 4.1 | 63 ± 5.2 | 48.6 ± 3.8 | 67.8 ± 8.9
UCUCGCAACAUGUAAACCAAA | 70.2 ± 11 | 54.4 ± 7.5 | 88.1 ± 5.4 | 95.5 ± 18
UGGGGGGACAUGUAAACCAAA | 8.4 ± 2 | 16.1 ± 0.49 | 4.65 ± 0.44 | 81.5 ± 9.7
UACGGAGACAUGUAAACCAAA | 80.4 ± 4 | 88.1 ± 19 | 83.7 ± 7.2 | 86.9 ± 16
UUUAGCGACAUGUAAACCAAA | 90.5 ± 12 | 83.3 ± 16 | 102 ± 7.2 | 93.9 ± 7.4
UGGGAAUACAUGUAAACCAAA | 42.4 ± 2.5 | 56.9 ± 2.4 | 57.3 ± 3.7 | 76.4 ± 4.8
UAAUAUAACAUGUAAACCAAA | 93.1 ± 1.2 | 89.4 ± 13 | 99.5 ± 4.8 | 121 ± 7.5
UCCUCAAACAUGUAAACCAAA | 59.8 ± 8.4 | 62.2 ± 9 | 90.1 ± 7.5 | 91.2 ± 15
UUGACGAACAUGUAAACCAAA | 62.4 ± 6.9 | 85.9 ± 1.4 | 93 ± 12 | 97.9 ± 17
UUUAACCACAUGUAAACCAAA | 74.4 ± 11 | 50.1 ± 1.8 | 71.4 ± 5.4 | 58.2 ± 4.1
UCAAUUAACAUGUAAACCAAA | 69.9 ± 12 | 67.6 ± 16 | 87.1 ± 1.1 | 97.9 ± 8.3
UACAGCCACAUGUAAACCAAA | 3.79 ± 1.2 | 37.6 ± 3 | 37.3 ± 3.8 | 3 ± 1.2
UAAGACUACAUGUAAACCAAA | 43.1 ± 6.2 | 78.8 ± 13 | 67 ± 4.2 | 74.4 ± 7.4
UUCGUGUACAUGUAAACCAAA | 32.7 ± 4.8 | 70.6 ± 9.1 | 89.9 ± 14 | 84.2 ± 15
UCUUGGCACAUGUAAACCAAA | 9.69 ± 2 | 44.4 ± 3 | 8.41 ± 1.3 | 27.5 ± 3.1

Sequence | cell viability (M565) [%] | cell viability (H460) [%] | cell viability (HeyA8) [%] | cell viability (3LL) [%]
UCUAUGUACAUGUAAACCAAA | 73.3 ± 15 | 66.8 ± 1.9 | 56.6 ± 1.1 | 80.7 ± 16
UGCGACCACAUGUAAACCAAA | 39.1 ± 14 | 39.5 ± 2 | 13.3 ± 1.6 | 71 ± 9
UUUGGACACAUGUAAACCAAA | 65.7 ± 11 | 74.6 ± 12 | 69.7 ± 3.5 | 78.2 ± 6.5
UCACCUUACAUGUAAACCAAA | 98.9 ± 7.2 | 55.2 ± 4.8 | 74.6 ± 6.1 | 104 ± 14
UCCCUUUACAUGUAAACCAAA | 98.2 ± 15 | 61.6 ± 8 | 66.9 ± 4 | 122 ± 34
UACUCGCACAUGUAAACCAAA | 17.3 ± 5.1 | 69.7 ± 14 | 78.4 ± 8.3 | 21.7 ± 5.1
UUGUACGACAUGUAAACCAAA | 101 ± 13 | 70.6 ± 8.5 | 89.1 ± 3 | 84.6 ± 3.7
UCCCCCAACAUGUAAACCAAA | 79.5 ± 12 | 86.3 ± 13 | 74.4 ± 4.2 | 106 ± 19
UCGCUGUACAUGUAAACCAAA | 31.8 ± 2.6 | 89.4 ± 3.5 | 77 ± 12 | 51.3 ± 13
UCGAGAGACAUGUAAACCAAA | 58.6 ± 1.6 | 73.1 ± 18 | 81.64 ± 0.72 | 91.4 ± 21
UCACGUCACAUGUAAACCAAA | 37.6 ± 6.5 | 32.8 ± 4.1 | 76.6 ± 4.9 | 88.1 ± 7.9
UGGGGGUACAUGUAAACCAAA | 9.78 ± 4.9 | 5.49 ± 1 | 1.62 ± 0.32 | 14.8 ± 7.1
UUGCACUACAUGUAAACCAAA | 102 ± 16 | 53.1 ± 3.8 | 59.66 ± 0.23 | 30.2 ± 5
UCACGCUACAUGUAAACCAAA | 72.9 ± 12 | 27.2 ± 2.7 | 76.4 ± 8.7 | 95.2 ± 13
UACCGACACAUGUAAACCAAA | 38.4 ± 7.6 | 87.3 ± 5.6 | 68.7 ± 7.1 | 66.4 ± 5.8
UACGCCCACAUGUAAACCAAA | 31.4 ± 6.6 | 66 ± 11 | 48.2 ± 1.3 | 57.8 ± 7
UACCUUAACAUGUAAACCAAA | 77.9 ± 9.8 | 60.8 ± 8.7 | 86.4 ± 3.6 | 92.5 ± 4.5
UUUGAUAACAUGUAAACCAAA | 90.6 ± 6.6 | 65.9 ± 7.8 | 104 ± 6.1 | 103 ± 6.8
UAAAUGUACAUGUAAACCAAA | 66.7 ± 6.1 | 75 ± 11 | 81.8 ± 5.4 | 85.2 ± 9.8
UGAGGGGACAUGUAAACCAAA | 8.59 ± 2.9 | 27.7 ± 1.8 | 3.68 ± 0.15 | 53.4 ± 23

Sequence | cell viability (M565) [%] | cell viability (H460) [%] | cell viability (HeyA8) [%] | cell viability (3LL) [%]
UGCUUCGACAUGUAAACCAAA | 44.5 ± 1.4 | 69.7 ± 6 | 36 ± 3.6 | 59.9 ± 12
UGCCGGAACAUGUAAACCAAA | 19 ± 1.2 | 45.1 ± 1.6 | 75.3 ± 6.8 | 52.4 ± 6.2
UCUCCCUACAUGUAAACCAAA | 80.6 ± 10 | 38.7 ± 2.5 | 65.5 ± 4.2 | 94.1 ± 12
UACAGUCACAUGUAAACCAAA | 12.5 ± 3.3 | 74.6 ± 7.6 | 35.1 ± 3.2 | 29.8 ± 5.8
UACCCAGACAUGUAAACCAAA | 24.6 ± 1.7 | 71.4 ± 8.4 | 51.7 ± 2.2 | 52.9 ± 8.5
UGAUAUGACAUGUAAACCAAA | 62.4 ± 5.8 | 60.4 ± 11 | 67.2 ± 2.3 | 58.9 ± 16
UAGACUAACAUGUAAACCAAA | 72.3 ± 1.6 | 76.3 ± 7.9 | 95.2 ± 4.5 | 92.8 ± 2.4
UGCGAUCACAUGUAAACCAAA | 47.8 ± 7.6 | 12.5 ± 1.2 | 41.7 ± 3.7 | 92.8 ± 9.7
UACUUUGACAUGUAAACCAAA | 100 ± 5.4 | 62.7 ± 5.2 | 73.1 ± 7.5 | 90.3 ± 10
UCGGAGAACAUGUAAACCAAA | 61 ± 3.4 | 59.6 ± 6 | 66.9 ± 3.7 | 95.1 ± 14
UUGUAGGACAUGUAAACCAAA | 14.5 ± 0.78 | 42.5 ± 7 | 50.2 ± 2.3 | 7.39 ± 1.3
UUACCUAACAUGUAAACCAAA | 95.6 ± 14 | 76.2 ± 10 | 103 ± 4.4 | 99.7 ± 10
UGAACCAACAUGUAAACCAAA | 58.4 ± 17 | 71 ± 10 | 83 ± 4 | 98.6 ± 19
UUAGACAACAUGUAAACCAAA | 76 ± 16 | 86.2 ± 29 | 104 ± 6.1 | 93.8 ± 10
UUGGCCCACAUGUAAACCAAA | 37.5 ± 7 | 59.1 ± 3.8 | 68.6 ± 11 | 19.6 ± 3.1
UCCCUAAACAUGUAAACCAAA | 75.2 ± 13 | 52 ± 9.2 | 89.7 ± 6.3 | 109 ± 27
UAAGACGACAUGUAAACCAAA | 73.7 ± 5.2 | 65.3 ± 7.8 | 94.3 ± 5.4 | 89.8 ± 6.8
UCGCAGCACAUGUAAACCAAA | 28.9 ± 5.8 | 43.5 ± 2.7 | 64.9 ± 2.5 | 51.5 ± 21
UCAAUUUACAUGUAAACCAAA | 72.6 ± 5.3 | 59.9 ± 0.61 | 85.2 ± 4.2 | 90.8 ± 12
UUGAUUAACAUGUAAACCAAA | 109 ± 21 | 89.1 ± 21 | 90.2 ± 7.1 | 88 ± 11
